# ± gives the standard deviation of the averaged measurements. Whole data set: some 33,000 sequences, median “E-score (dimensionless, -0.5 to 0.5)” near -0.046, cut for the highest 2% near 0.36. Some of the results follow.
# System: T1, SpTbr T-box DNA-binding domain (GST fusion)
# T1 sequence: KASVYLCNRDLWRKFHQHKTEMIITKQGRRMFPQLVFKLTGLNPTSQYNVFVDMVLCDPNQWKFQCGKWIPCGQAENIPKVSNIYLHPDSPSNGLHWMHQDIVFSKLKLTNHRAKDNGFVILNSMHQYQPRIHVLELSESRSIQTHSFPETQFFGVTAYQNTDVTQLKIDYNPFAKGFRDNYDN
# Test: PBM E-score of 8-mer (E-score (dimensionless, -0.5 to 0.5)); Tbr is Tbrain of the sea star Patiria miniata (Pm) or the sea urchin Strongylocentrotus purpuratus (Sp); higher = stronger binding preference; most listed sequences are background and not binding sites
# Settings: the construct has about 5 more residues each side
# Procedure, shortened: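 GST-fused Tbr T-box DNA-binding domains (the whole T-box plus about five flanking residues) were expressed in BL21 E. coli at 20 °C and purified by glutathione affinity chromatography. Universal Agilent oligonucleotide arrays were made double-stranded by primer extension, incubated with 200 nM protein in PBS (pH 7.5), then scanned and quantified. Every ungapped 8-mer was scored from probe intensities. The Universal PBM Analysis Suite gave each word an enrichment E-score, averaged over duplicate arrays.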
row,Sequence,PBM E-score of 8-mer
1,GGTTTCAC,0.252 ± 0.047
2,GGCTGGGA,-0.213 ± 0.0045
3,GCCTCTCA,0.0085 ± 0.045
4,CATCCCGA,0.0316 ± 0.068
5,GTATAAAA,-0.213 ± 0.037
6,TCGTTAGA,-0.00685 ± 0.036
7,CTGTTGGC,0.199 ± 0.055
8,ATGCGGAG,-0.068 ± 0.02
9,AGTTCTAT,-0.202 ± 0.011
10,ACAACATG,0.171 ± 0.016
11,ACGAGTGA,0.0998 ± 0.035
12,AGTGACCA,0.11 ± 0.058
13,GGCGCGAA,0.463 ± 0.011
14,GTGAACAC,0.341 ± 0.023
15,ATATATTA,-0.279 ± 0.044
16,TCTTAGCA,0.246 ± 0.0053
17,AGTAAGTG,0.232 ± 0.0076
18,CGCGCGAC,0.284 ± 0.015
19,TCCGAACA,0.0875 ± 0.0097
20,AAAGGGGA,-0.12 ± 0.037
21,ACACTGTG,0.299 ± 0.03
22,ACACGCAC,0.138 ± 0.017
23,CAGAAGGG,0.0708 ± 0.037
24,GACACACA,0.251 ± 0.021
25,ATCCGCCC,-0.217 ± 0.0085

row,Sequence,PBM E-score of 8-mer
1,ACGCCACG,0.0319 ± 0.14
2,CCGCCAGA,0.0217 ± 0.029
3,CACGCAAC,0.154 ± 0.09
4,AACACCTA,0.4609 ± 0.0024
5,ACGGTCAC,0.19 ± 0.056
6,CCCATGCC,-0.273 ± 0.038
7,CAGCAGCC,-0.127 ± 0.0024
8,CGTACCAC,-0.0764 ± 0.081
9,GCTACCCC,-0.0877 ± 0.072
10,GATAAGCC,0.0533 ± 0.0065
11,CCGCTCCA,-0.15 ± 0.031
12,ACCCACCG,-0.116 ± 0.0075
13,GTAATCAC,0.239 ± 0.0074
14,AGCGCACA,0.00948 ± 0.075
15,CACGCGTG,0.34 ± 0.0094
16,CCGATCAG,0.00396 ± 0.037
17,TACCCAGA,-0.153 ± 0.066
18,CGTAGTTA,-0.218 ± 0.043
19,ATCGGGAA,-0.131 ± 0.033
20,CCCCGTTC,0.0168 ± 0.039
21,AACCGTAC,-0.119 ± 0.017
22,ACGTTAAT,0.0812 ± 0.022
23,CACCGAAC,0.187 ± 0.073
24,ATTCCTGG,-0.309 ± 0.056
25,GCGGCCAA,0.0926 ± 0.055

row,Sequence,PBM E-score of 8-mer
1,GAAGGGGA,-0.0835 ± 0.056
2,ATTACTAG,-0.033 ± 0.00078
3,ACATGGGA,-0.0673 ± 0.097
4,GGCTTGTA,-0.189 ± 0.029
5,CCCGTAAA,-0.0141 ± 0.076
6,AGGCTCCA,-0.0967 ± 0.023
7,CATATTAG,-0.0681 ± 0.017
8,GACCGGTC,0.0284 ± 0.076
9,GTATGTAA,-0.216 ± 0.01
10,GACCTTCC,-0.00679 ± 0.036
11,CACAATTA,0.259 ± 0.041
12,ACACGGAC,0.0746 ± 0.055
13,AACCGATC,0.0581 ± 0.0084
14,GTCACATA,0.247 ± 0.043
15,CATCTCAC,0.308 ± 0.006
16,CTCTCTCA,0.135 ± 0.0023
17,CACACACC,0.454 ± 0.013
18,CTCCGGCC,-0.234 ± 0.013
19,AAGGATTG,-0.0744 ± 0.013
20,ACATCGTG,0.0075 ± 0.037
21,AGCACCAA,0.174 ± 0.04
22,CCATCCGC,-0.0678 ± 0.075
23,AAGTTTGT,-0.0997 ± 0.016
24,CGGATCAC,0.163 ± 0.0029
25,GCCTTACA,0.0297 ± 0.056

row,Sequence,PBM E-score of 8-mer
1,AGACAGCC,-0.14 ± 0.054
2,TATACGGA,-0.0839 ± 0.0093
3,CCCTTTAA,-0.125 ± 0.018
4,AAGTTCTC,0.05 ± 0.063
5,AGTAAGCG,0.0237 ± 0.02
6,CCACCGTC,-0.101 ± 0.0095
7,TATGCTAA,-0.00225 ± 0.056
8,CACGCCTG,0.318 ± 0.08
9,AAGTACCG,-0.161 ± 0.055
10,CTGAACGA,-0.254 ± 0.028
11,ATGCCGTA,-0.217 ± 0.058
12,CGCATTGC,-0.115 ± 0.078
13,ATCGAAGA,-0.0874 ± 0.012
14,GCCCCCAC,-0.133 ± 0.027
15,CTCCTCTC,0.0391 ± 0.091
16,TACAGCCA,-0.206 ± 0.025
17,TTCCACAA,0.125 ± 0.07
18,CGTAATAA,-0.0707 ± 0.057
19,ACGAGGAC,-0.105 ± 0.073
20,CGCACTAA,0.256 ± 0.011
21,CGTATCGC,0.201 ± 0.0051
22,CCTCAAGG,-0.109 ± 0.027
23,TGGCGTAA,0.108 ± 0.019
24,CAAGGCAG,-0.314 ± 0.044
25,AGGCGTGA,0.4754 ± 0.0047

row,Sequence,PBM E-score of 8-mer
1,ATGCAGGC,-0.291 ± 0.0043
2,CGATCCAC,-0.0407 ± 0.042
3,AAAGAGGC,-0.175 ± 0.05
4,AAGGGAAT,-0.106 ± 0.046
5,ACTGACAC,0.349 ± 0.011
6,ATTCCACC,-0.15 ± 0.048
7,GAGCCGAA,-0.082 ± 0.056
8,AAAACAAC,0.0735 ± 0.046
9,CAGGTTGA,-0.0647 ± 0.018
10,CCTCCATC,-0.0262 ± 0.042
11,CACATAGG,0.157 ± 0.045
12,AAAATAAG,-0.181 ± 0.0025
13,ATTGCTTC,-0.114 ± 0.019
14,CGAACGCA,0.00974 ± 0.014
15,GCGCCTCA,0.326 ± 0.0035
16,ATCGCGGC,0.15 ± 0.052
17,CCATGCAG,-0.0129 ± 0.02
18,ACATTTCT,0.101 ± 0.0014
19,AGGGCAAC,-0.0399 ± 0.1
20,CACTCAAG,0.106 ± 0.095
21,AACCGGCA,0.0916 ± 0.0064
22,CCCTTAAA,-0.107 ± 0.11
23,ATTTCCAG,-0.161 ± 0.0028
24,CCCATATC,-0.1952 ± 0.0016
25,GCTTCTAA,-0.0548 ± 0.028

row,Sequence,PBM E-score of 8-mer
1,CGCAACAA,-0.00407 ± 0.067
2,CAAAGTTA,0.0751 ± 0.038
3,CTGGTTAC,0.0223 ± 0.017
4,ATCTTAAT,-0.145 ± 0.051
5,CAAGCGAA,-0.0122 ± 0.031
6,ATTTGGGG,-0.254 ± 0.0029
7,TCGGCCCA,-0.248 ± 0.033
8,GGCTCGGA,-0.274 ± 0.014
9,GAGGCGAC,0.252 ± 0.034
10,AGCAACTA,0.0974 ± 0.13
11,CCTTAGTC,-0.187 ± 0.028
12,TCGTTACA,-0.0221 ± 0.077
13,GGTAGGGA,-0.191 ± 0.051
14,AAGGCCGG,-0.217 ± 0.014
15,GCTTAGAA,-0.156 ± 0.026
16,AATCCATC,-0.0763 ± 0.017
17,CTGTAGCA,-0.0347 ± 0.061
18,AGCGTGCC,0.0452 ± 0.064
19,ACTGGCTA,-0.191 ± 0.047
20,CTCAGTAC,-0.145 ± 0.085
21,GAGTTCCA,-0.14 ± 0.0034
22,CGCCCCAA,0.232 ± 0.051
23,GCTGTCCC,-0.156 ± 0.045
24,CGTTTCTC,-0.0629 ± 0.075
25,AGATAGGA,-0.171 ± 0.05

row,Sequence,PBM E-score of 8-mer
1,ACATCGAA,-0.0435 ± 0.033
2,AGGAGTAG,-0.144 ± 0.12
3,CAACAAGA,-0.0316 ± 0.0082
4,AGGACCAA,-0.111 ± 0.046
5,AACTCCAA,0.131 ± 0.0017
6,CATAAAAG,-0.246 ± 0.021
7,CCACCTAC,0.248 ± 0.043
8,ACTTACAT,0.0724 ± 0.033
9,AGAAACAC,0.157 ± 0.037
10,CCCGCTAC,-0.0498 ± 0.12
11,AAAAGGAT,-0.0795 ± 0.11
12,GACGTCAC,0.159 ± 0.039
13,ACCATAAC,0.0602 ± 0.0074
14,CCTCTGTC,0.0257 ± 0.037
15,CACGTAAA,0.0349 ± 0.065
16,ACTACCCT,0.07 ± 0.017
17,ACCCTTAA,0.0101 ± 0.039
18,AGCTGCAC,0.0807 ± 0.11
19,GACTCCAC,-0.159 ± 0.076
20,CTAAGAAA,-0.136 ± 0.081
21,CCAACCAC,0.224 ± 0.018
22,AACTCACA,0.2436 ± 0.00066

# Reference: the supplement of paper PMC4166925
